# This is one part of the list. At the low end of the ranking the order means little.
# Target: SIX1 homeodomain (reference allele) (UniProt Q15475)
# Assay: universal protein binding microarray
# Details: Universal all-10-mer PBM (8x60K, AMADID 030236), 300 nM GST-tagged protein, Alexa Fluor 488 anti-GST; buffer, salt, pH and temperature not stated; high values mean tight binding; most listed sequences are background and not binding sites; double strand, one strand shown
row,Sequence,binding signal
1,GTCTCTGA,-0.00624 E-score
2,GTAACTCA,-0.26 E-score
3,AGAAATCC,0.0198 E-score
4,AATACTCC,0.112 E-score
5,ATTAGATC,0.287 E-score
6,GAGAACTA,-0.003 E-score
7,ATCGATCA,0.17 E-score
8,GGAAGCAA,-0.204 E-score
9,AGTATAAC,0.145 E-score
10,CATTGATC,0.265 E-score
11,ATCTGCCG,0.0863 E-score
12,GCGATTAC,-0.043 E-score
13,AATTCTCG,-0.106 E-score
14,GGACGGCC,-0.192 E-score
15,CGTGCCCA,-0.0655 E-score
16,GCAACTCA,-0.211 E-score
17,TAGATACA,0.25 E-score
18,AACCGTCG,-0.175 E-score
19,CGAGTAAG,-0.103 E-score
20,CAATAGCA,0.0849 E-score
21,ATCACTGG,0.215 E-score
22,GCAGATCA,0.369 E-score
23,CTCGTGAC,-0.0534 E-score
24,ACCCCTCA,0.0622 E-score
25,CGTTTTGA,-0.0843 E-score

row,Sequence,binding signal
1,CTGTTGCA,-0.162 E-score
2,AAATGTAT,0.0352 E-score
3,CTGAAAGC,0.0299 E-score
4,GTGGTGGA,0.00264 E-score
5,AGCTATCG,0.284 E-score
6,TCTCCAAA,0.083 E-score
7,CGATACCA,0.455 E-score
8,CTAGCGAC,-0.122 E-score
9,AGAACCAT,-0.178 E-score
10,CTCCCAAC,-0.248 E-score
11,AGAGTAGA,0.112 E-score
12,AAGCCGAG,-0.0919 E-score
13,CGTTAATC,0.0692 E-score
14,CAGGTGGA,-0.0882 E-score
15,CGCTAGCA,-0.113 E-score
16,CAATCCAG,0.02 E-score
17,GCCATGGC,-0.266 E-score
18,CGAGCCCA,-0.0153 E-score
19,CATGAGGC,-0.14 E-score
20,CCGTTAGA,0.0115 E-score
21,ATAGAACG,-0.0978 E-score
22,ACAGAACC,-0.164 E-score
23,AAGTGGGC,-0.104 E-score
24,CTGATATC,0.465 E-score
25,CACAGCAC,-0.226 E-score

row,Sequence,binding signal
1,CAGTCGCG,-0.0664 E-score
2,CTCTGTGA,-0.00839 E-score
3,CAAGACGA,0.0543 E-score
4,CAAAGGAC,-0.266 E-score
5,AAACGTGA,-0.125 E-score
6,AGACAGGC,-0.134 E-score
7,ATGCTTGG,-0.118 E-score
8,CACAGAAA,-0.192 E-score
9,CTACACCA,0.312 E-score
10,AGCGTTCC,-0.275 E-score
11,CTGCGTCA,-0.126 E-score
12,GAGTTGAA,-0.261 E-score
13,GCTGCCGA,-0.153 E-score
14,GAGAGGCA,-0.0264 E-score
15,ATTTTTGG,-0.258 E-score
16,CCCACAGG,0.0516 E-score
17,ACTCAGGC,-0.147 E-score
18,AATGAGCG,-0.178 E-score
19,CTCATGAG,-0.0407 E-score
20,AGAGGATA,0.326 E-score
21,CCGGCCAC,-0.295 E-score
22,AGGCTCCC,-0.249 E-score
23,ACAGGGCG,-0.18 E-score
24,ACTGCTAG,-0.07 E-score
25,ACGGTCCC,-0.22 E-score

row,Sequence,binding signal
1,CAACGCAG,-0.067 E-score
2,AGGTGGAA,-0.0483 E-score
3,AGCCTCCC,-0.151 E-score
4,AAGTTCGG,-0.217 E-score
5,AACGCACT,-0.212 E-score
6,AAATTTAG,-0.089 E-score
7,AATGGTTC,-0.198 E-score
8,ACATAAAG,-0.149 E-score
9,CGCTAGTC,-0.146 E-score
10,ACTGAGCA,-0.07 E-score
11,ATACCATG,0.362 E-score
12,AAACAAAC,-0.226 E-score
13,CAGACCAG,-0.23 E-score
14,CTCGCGTC,-0.0573 E-score
15,ACGGCTGA,0.056 E-score
16,AACCGAAT,-0.0453 E-score
17,ATCTCCAC,0.204 E-score
18,TGCCTGAA,-0.231 E-score
19,ACTGCCAA,-0.121 E-score
20,AAATGTTG,-0.354 E-score
21,AGTCATCA,-0.18 E-score
22,GGAATTGA,0.04 E-score
23,CCGAGTCG,0.0982 E-score
24,CCTGGACA,-0.0535 E-score
25,CAACCCCG,0.022 E-score

row,Sequence,binding signal
1,GTTTCTTA,-0.0974 E-score
2,ACTGCAGG,-0.171 E-score
3,CGATGTAA,-0.0517 E-score
4,ATAAAAAG,-0.115 E-score
5,ATAAGTGA,0.0269 E-score
6,GGTCCCAA,-0.209 E-score
7,CCTGAACA,-0.153 E-score
8,CATGTGGA,-0.0951 E-score
9,AACAGAAC,-0.199 E-score
10,GAGAGATC,0.286 E-score
11,GATGGTTA,0.0146 E-score
12,ATAGCGAT,0.294 E-score
13,ACATGCGG,-0.0397 E-score
14,AGAAGTAA,-0.205 E-score
15,AACCGGCG,0.143 E-score
16,TAAAACAA,-0.16 E-score
17,ATAGTGTG,0.0701 E-score
18,GGTTAGTA,0.114 E-score
19,GAATCGGA,-0.0367 E-score
20,CACATCCG,0.00255 E-score
21,CCCGAACC,0.0575 E-score
22,GGAATAAC,0.0281 E-score
23,CCCCCCGA,0.208 E-score
24,CCGGAAGC,-0.0557 E-score
25,CGAAATAG,-0.0895 E-score

row,Sequence,binding signal
1,GGAGGGAC,-0.0771 E-score
2,ACAGGTCG,-0.114 E-score
3,ACCAAGAC,0.0105 E-score
4,TAATCACA,0.14 E-score
5,AATTATAC,0.165 E-score
6,GGTGAATA,-0.0319 E-score
7,AAGGAACG,-0.024 E-score
8,ACGCTACT,-0.146 E-score
9,CAGGCGAA,-0.198 E-score
10,CCCTCAAC,-0.184 E-score
11,TGCCCCAA,0.0374 E-score
12,TCGAATAA,-0.214 E-score
13,ATTCTCTA,0.0459 E-score
14,GATCCATA,0.357 E-score
15,CGGTCTTA,-0.0731 E-score
16,GACGCACA,-0.0887 E-score
17,CGTGCGCC,-0.04 E-score
18,ATAGTGGG,0.0656 E-score
19,ACGCGCCT,-0.129 E-score
20,ATTTATGG,0.017 E-score
21,ACCCAGCG,-0.0406 E-score
22,CTACGCGC,-0.0911 E-score
23,ACTAAACA,-0.262 E-score
24,AGCTCGTA,-0.0164 E-score
25,CGCGGCCA,-0.269 E-score

row,Sequence,binding signal
1,CCACAGGA,-0.0776 E-score
2,GCGACGGA,-0.0438 E-score
3,CCAAGCTA,-0.131 E-score
4,ATAGGCCG,-0.135 E-score
5,AACATAAG,-0.265 E-score
6,AGTACGGG,-0.146 E-score
7,CGCCGTCA,-0.216 E-score
8,CCTAGGCC,-0.222 E-score
9,GTTGAGTA,0.0416 E-score
10,ACCTTGTG,0.00398 E-score
11,GCTCTTAA,-0.0421 E-score
12,TCTTCCAA,-0.158 E-score
13,CGGATGTA,0.151 E-score
14,CACGTTTC,-0.185 E-score
15,GAGCAGAA,-0.0849 E-score
16,CACGGACA,-0.0737 E-score
17,GACCGAGA,0.0368 E-score
18,ACAGTTGA,-0.215 E-score
19,ATCGGGAC,0.0114 E-score
20,CCGTGGAG,-0.0415 E-score
21,ATTTATAC,0.22 E-score
22,TAACGTAA,-0.133 E-score
23,AGTACGAT,0.248 E-score
24,AAATGGTG,0.0734 E-score
25,ATAGTTTA,0.0271 E-score

row,Sequence,binding signal
1,ACTCCATC,0.162 E-score
2,ATCGATTA,0.157 E-score
3,AGGCTCGC,-0.136 E-score
4,CCACTGCA,-0.173 E-score
5,CAGTCTAG,-0.0945 E-score
6,CCTGATAC,0.472 E-score
7,ACTCCGAC,-0.0674 E-score
8,GATCGAGC,0.218 E-score
9,CAATCATA,0.00404 E-score
10,CTCGATAA,0.0567 E-score
11,AACGGAAC,-0.327 E-score
12,AATGTAGC,-0.138 E-score
13,AACTGGGT,0.0276 E-score
14,GGGTGCGA,0.00352 E-score
15,AAGGTGAT,0.195 E-score
16,ACTGTAGA,0.0919 E-score
17,CGGATGGC,0.117 E-score
18,AGTACCCC,0.088 E-score
19,CAAGGAAC,-0.16 E-score
20,AAAAACAA,-0.22 E-score
21,CAGAGGGG,0.107 E-score
22,CTCAGACA,0.0138 E-score
23,CAGGTAAG,-0.198 E-score
24,TCTCCTCA,-0.0719 E-score
25,AAGCATGG,-0.0526 E-score

row,Sequence,binding signal
1,CGTGTATA,0.247 E-score
2,ACCACGGG,-0.0144 E-score
3,GGTAGATA,0.336 E-score
4,ACCTCACG,-0.0851 E-score
5,AGCGTACC,-0.0396 E-score
6,CCATATAA,0.155 E-score
7,CCCCAGAG,-0.0759 E-score
8,TCAGTAAA,-0.143 E-score
9,AGGAGGTA,0.101 E-score
10,ACTTACTC,-0.00524 E-score
11,ACGAGGAG,-0.111 E-score
12,CACCCACG,0.0735 E-score
13,CGATCGTA,0.212 E-score
14,CGTAAACA,-0.107 E-score
15,CCTACATC,0.00996 E-score
16,ACTGCGCA,-0.216 E-score
17,ATCAGACC,0.201 E-score
18,AGAATGGA,0.0605 E-score
19,GACTTCGC,-0.0934 E-score

# From publication PMC10668032
